From the supplement of paper PMC8728848
The list shows a part of the results.

Tests used:
Assay in all cases: glycan array binding signal (z-score within array); higher = stronger binding
Conditions in all cases: glycan notation: IUPAC condensed, linker removed
[1] = biological target: Fuc(a1-2)Gal(b1-4)[Fuc(a1-3)]GlcNAc(b1-2)Man(a1-3)[Fuc(a1-2)Gal(b1-4)[Fuc(a1-3)]GlcNAc(b1-2)Man(a1-6)]Man(b1-4)GlcNAc(b1-4)[Fuc(a1-6)]GlcNAc
Summary of the method: (§1)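 Glycan array data came from 3228 arrays in the Consortium for Functional Glycomics database, and only arrays with an available protein sequence were kept. Glycan names were put into IUPAC-condensed notation, and columns mapping to the same glycan were averaged. The binding signal is a within-array Z-score, averaged across arrays of one protein sequence run at different concentrations or buffers and across linkers. A negative Z-score can be read as non-binding.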

[2] = biological target: Fuc(a1-2)Gal(b1-4)[Fuc(a1-3)]GlcNAc(b1-2)[Fuc(a1-2)Gal(b1-4)[Fuc(a1-3)]GlcNAc(b1-4)]Man(a1-3)[Fuc(a1-2)Gal(b1-4)[Fuc(a1-3)]GlcNAc(b1-2)Man(a1-6)]Man(b1-4)GlcNAc(b1-4)GlcNAc
Summary of the method: as §1

[3] = biological target: Fuc(a1-2)Gal(b1-4)[Fuc(a1-3)]GlcNAc(b1-3)Gal(b1-4)[Fuc(a1-3)]GlcNAc
Summary of the method: as §1

[4] = biological target: Fuc(a1-2)Gal(b1-4)[Fuc(a1-3)]GlcNAc(b1-3)Gal(b1-4)[Fuc(a1-3)]GlcNAc(b1-3)Gal(b1-4)[Fuc(a1-3)]GlcNAc
Summary of the method: as §1

[5] = biological target: Fuc(a1-2)Gal(b1-4)[Fuc(a1-3)]GlcNAc(b1-3)GalNAc
Summary of the method: as §1

[6] = biological target: Fuc(a1-2)Gal(b1-4)[Fuc(a1-3)]GlcNAc(b1-3)[Neu5Ac(a2-6)Gal(b1-4)GlcNAc(b1-6)]Gal(b1-4)Glc
Summary of the method: as §1

[7] = biological target: Fuc(a1-2)Gal3S(b1-4)GlcNAc
Summary of the method: as §1

[8] = biological target: Fuc(a1-2)Gal6S(b1-3)GlcNAc
Summary of the method: as §1

[9] = biological target: Fuc(a1-2)Gal6S(b1-3)GlcNAc6S
Summary of the method: as §1

Fuc(a1-2)Gal6S(b1-4)Glc = biological target: Fuc(a1-2)Gal6S(b1-4)Glc
Summary of the method: as §1

[10] = biological target: Fuc(a1-2)Gal6S(b1-4)Glc6S
Summary of the method: as §1

Fuc(a1-2)[Gal(a1-3)]Gal = biological target: Fuc(a1-2)[Gal(a1-3)]Gal
Summary of the method: as §1

[11] = biological target: Fuc(a1-2)[Gal(a1-3)]Gal(b1-3)GalNAc
Summary of the method: as §1

[12] = biological target: Fuc(a1-2)[Gal(a1-3)]Gal(b1-3)GalNAc(b1-3)Gal(a1-4)Gal(b1-4)Glc
Summary of the method: as §1

[13] = biological target: Fuc(a1-2)[Gal(a1-3)]Gal(b1-3)GlcNAc
Summary of the method: as §1

[14] = biological target: Fuc(a1-2)[Gal(a1-3)]Gal(b1-3)GlcNAc(b1-2)Man(a1-3)[Fuc(a1-2)[Gal(a1-3)]Gal(b1-3)GlcNAc(b1-2)Man(a1-6)]Man(b1-4)GlcNAc(b1-4)GlcNAc
Summary of the method: as §1

[15] = biological target: Fuc(a1-2)[Gal(a1-3)]Gal(b1-3)GlcNAc(b1-2)Man(a1-3)[Fuc(a1-2)[Gal(a1-3)]Gal(b1-3)GlcNAc(b1-2)Man(a1-6)]Man(b1-4)GlcNAc(b1-4)[Fuc(a1-6)]GlcNAc
Summary of the method: as §1

[16] = biological target: Fuc(a1-2)[Gal(a1-3)]Gal(b1-3)GlcNAc(b1-3)GalNAc
Summary of the method: as §1

[17] = biological target: Fuc(a1-2)[Gal(a1-3)]Gal(b1-3)GlcNAc(b1-6)GalNAc
Summary of the method: as §1

[18] = biological target: Fuc(a1-2)[Gal(a1-3)]Gal(b1-4)Glc
Summary of the method: as §1

[19] = biological target: Fuc(a1-2)[Gal(a1-3)]Gal(b1-4)GlcNAc
Summary of the method: as §1

[20] = biological target: Fuc(a1-2)[Gal(a1-3)]Gal(b1-4)GlcNAc(b1-2)Man
Summary of the method: as §1

[21] = biological target: Fuc(a1-2)[Gal(a1-3)]Gal(b1-4)GlcNAc(b1-2)Man(a1-3)[Fuc(a1-2)[Gal(a1-3)]Gal(b1-4)GlcNAc(b1-2)Man(a1-6)]Man(b1-4)GlcNAc(b1-4)GlcNAc
Summary of the method: as §1

[22] = biological target: Fuc(a1-2)[Gal(a1-3)]Gal(b1-4)GlcNAc(b1-2)Man(a1-3)[Fuc(a1-2)[Gal(a1-3)]Gal(b1-4)GlcNAc(b1-2)Man(a1-6)]Man(b1-4)GlcNAc(b1-4)[Fuc(a1-6)]GlcNAc
Summary of the method: as §1

[23] = biological target: Fuc(a1-2)[Gal(a1-3)]Gal(b1-4)GlcNAc(b1-3)GalNAc
Summary of the method: as §1

[24] = biological target: Fuc(a1-2)[Gal(a1-3)]Gal(b1-4)GlcNAc(b1-3)[Fuc(a1-2)[Gal(a1-3)]Gal(b1-4)GlcNAc(b1-6)]GalNAc
Summary of the method: as §1

[25] = biological target: Fuc(a1-2)[Gal(a1-3)]Gal(b1-4)GlcNAc(b1-6)GalNAc
Summary of the method: as §1

[26] = biological target: Fuc(a1-2)[Gal(a1-3)]Gal(b1-4)[Fuc(a1-3)]Glc
Summary of the method: as §1

[27] = biological target: Fuc(a1-2)[Gal(a1-3)]Gal(b1-4)[Fuc(a1-3)]GlcNAc
Summary of the method: as §1

[28] = biological target: Fuc(a1-2)[Gal(a1-3)]Gal(b1-4)[Fuc(a1-3)]GlcNAc(b1-3)GalNAc
Summary of the method: as §1

[29] = biological target: Fuc(a1-2)[Gal(a1-4)]Gal(b1-4)GlcNAc
Summary of the method: as §1

[30] = biological target: Fuc(a1-2)[GalNAc(a1-3)]Gal
Summary of the method: as §1

[31] = biological target: Fuc(a1-2)[GalNAc(a1-3)]Gal(b1-3)GalNAc(a1-3)[Fuc(a1-2)]Gal(b1-4)GlcNAc
Summary of the method: as §1

[32] = biological target: Fuc(a1-2)[GalNAc(a1-3)]Gal(b1-3)GalNAc(b1-3)Gal(a1-4)Gal(b1-4)Glc
Summary of the method: as §1

[33] = biological target: Fuc(a1-2)[GalNAc(a1-3)]Gal(b1-3)GlcNAc
Summary of the method: as §1

[34] = biological target: Fuc(a1-2)[GalNAc(a1-3)]Gal(b1-3)GlcNAc(b1-2)Man(a1-3)[Fuc(a1-2)[GalNAc(a1-3)]Gal(b1-3)GlcNAc(b1-2)Man(a1-6)]Man(b1-4)GlcNAc(b1-4)GlcNAc
Summary of the method: as §1

[35] = biological target: Fuc(a1-2)[GalNAc(a1-3)]Gal(b1-3)GlcNAc(b1-2)Man(a1-3)[Fuc(a1-2)[GalNAc(a1-3)]Gal(b1-3)GlcNAc(b1-2)Man(a1-6)]Man(b1-4)GlcNAc(b1-4)[Fuc(a1-6)]GlcNAc
Summary of the method: as §1

[36] = biological target: Fuc(a1-2)[GalNAc(a1-3)]Gal(b1-3)GlcNAc(b1-3)GalNAc
Summary of the method: as §1

B1: PX14367B-bvu-516-23-516 (Bacteroides vulgatus) (protein)
chain: LDTIPTTYVDAGSVFGKTGDAEKVLNGGWNYLMETFNSYANPGYGAMLRANDAMGSDVVLNSKYGFRTHNEFSAIYGKGGTNTLSWLLAYRVINDCNGVLDNIDAAEGTQADRNRIKGQALALRGFLYLHLASCYSFAIDKDPDAVCAPIYTQSTDETIAAEGKPASSVSEVYAQSINDLEEALELIPETYVRDAKHKIDNEVVLGILSRACLYARQWEKAKTYSDKLLAKDNYLMTESEYKAGFNSVDNKEWIWGHAQTNDQSNASYQFHYLDTTTKGSYYYSFNVDPYFRDLFEDGDYRKEMLFWATDPGADVESAAYVWMRNSKFRFRDIENQLGDIVLMRVAEIYLINAEAKAHLNDPDAINKLNDLKTARGAKTIHTNLSQQDLLETIWLERRKELWGEGFSLIDIIRNQQTVVRNAYPEGPIDYIYTDENGQTHTLKKKTQGHRFFNFPDKSAFCPNSKYYLYRITDSEELANKNLYKDHPKLSIYTK
glycan array binding signal (z-score) [1]: -0.29
glycan array binding signal (z-score) [2]: -0.342
glycan array binding signal (z-score) [3]: -0.261
glycan array binding signal (z-score) [4]: -0.234
glycan array binding signal (z-score) [5]: 0.799
glycan array binding signal (z-score) [6]: -0.236
glycan array binding signal (z-score) [7]: -0.309
glycan array binding signal (z-score) [8]: -0.4
glycan array binding signal (z-score) [9]: -0.232
glycan array binding signal (z-score) (Fuc(a1-2)Gal6S(b1-4)Glc): -0.343
glycan array binding signal (z-score) [10]: -0.151
glycan array binding signal (z-score) (Fuc(a1-2)[Gal(a1-3)]Gal): -0.296
glycan array binding signal (z-score) [11]: -0.219
glycan array binding signal (z-score) [12]: -0.329
glycan array binding signal (z-score) [13]: -0.288
glycan array binding signal (z-score) [14]: 0.559
glycan array binding signal (z-score) [15]: -0.25
glycan array binding signal (z-score) [16]: -0.384
glycan array binding signal (z-score) [17]: -0.326
glycan array binding signal (z-score) [18]: -0.376
glycan array binding signal (z-score) [19]: -0.332
glycan array binding signal (z-score) [20]: -0.324
glycan array binding signal (z-score) [21]: 2.56
glycan array binding signal (z-score) [22]: -0.066
glycan array binding signal (z-score) [23]: -0.334
glycan array binding signal (z-score) [24]: -0.244
glycan array binding signal (z-score) [25]: -0.278
glycan array binding signal (z-score) [26]: -0.383
glycan array binding signal (z-score) [27]: -0.255
glycan array binding signal (z-score) [28]: 1.33
glycan array binding signal (z-score) [29]: -0.101
glycan array binding signal (z-score) [30]: -0.307
glycan array binding signal (z-score) [31]: -0.383
glycan array binding signal (z-score) [32]: -0.359
glycan array binding signal (z-score) [33]: -0.316
glycan array binding signal (z-score) [34]: -0.086
glycan array binding signal (z-score) [35]: -0.232
glycan array binding signal (z-score) [36]: -0.26
